# Laboratory results: article PMC4336329 (PLoS ONE, 2015)
# About 14,000 (4.5%) of roughly 310,000 compounds showed an effect of 50% or more. The effect is printed as a negative number. The list shows a part of the results.
# Target: human ether-à-go-go-related gene (hERG) potassium channel (human, UniProt Q12809)
# Experiment: primary screen, population patch clamp on CHO cells stably expressing hERG
# 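Further: peak tail current of the secondary pulse compared with the same well before compound.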
# human ether-à-go-go-related gene (hERG) potassium channel, sequence (Q12809 whole entry, looked up): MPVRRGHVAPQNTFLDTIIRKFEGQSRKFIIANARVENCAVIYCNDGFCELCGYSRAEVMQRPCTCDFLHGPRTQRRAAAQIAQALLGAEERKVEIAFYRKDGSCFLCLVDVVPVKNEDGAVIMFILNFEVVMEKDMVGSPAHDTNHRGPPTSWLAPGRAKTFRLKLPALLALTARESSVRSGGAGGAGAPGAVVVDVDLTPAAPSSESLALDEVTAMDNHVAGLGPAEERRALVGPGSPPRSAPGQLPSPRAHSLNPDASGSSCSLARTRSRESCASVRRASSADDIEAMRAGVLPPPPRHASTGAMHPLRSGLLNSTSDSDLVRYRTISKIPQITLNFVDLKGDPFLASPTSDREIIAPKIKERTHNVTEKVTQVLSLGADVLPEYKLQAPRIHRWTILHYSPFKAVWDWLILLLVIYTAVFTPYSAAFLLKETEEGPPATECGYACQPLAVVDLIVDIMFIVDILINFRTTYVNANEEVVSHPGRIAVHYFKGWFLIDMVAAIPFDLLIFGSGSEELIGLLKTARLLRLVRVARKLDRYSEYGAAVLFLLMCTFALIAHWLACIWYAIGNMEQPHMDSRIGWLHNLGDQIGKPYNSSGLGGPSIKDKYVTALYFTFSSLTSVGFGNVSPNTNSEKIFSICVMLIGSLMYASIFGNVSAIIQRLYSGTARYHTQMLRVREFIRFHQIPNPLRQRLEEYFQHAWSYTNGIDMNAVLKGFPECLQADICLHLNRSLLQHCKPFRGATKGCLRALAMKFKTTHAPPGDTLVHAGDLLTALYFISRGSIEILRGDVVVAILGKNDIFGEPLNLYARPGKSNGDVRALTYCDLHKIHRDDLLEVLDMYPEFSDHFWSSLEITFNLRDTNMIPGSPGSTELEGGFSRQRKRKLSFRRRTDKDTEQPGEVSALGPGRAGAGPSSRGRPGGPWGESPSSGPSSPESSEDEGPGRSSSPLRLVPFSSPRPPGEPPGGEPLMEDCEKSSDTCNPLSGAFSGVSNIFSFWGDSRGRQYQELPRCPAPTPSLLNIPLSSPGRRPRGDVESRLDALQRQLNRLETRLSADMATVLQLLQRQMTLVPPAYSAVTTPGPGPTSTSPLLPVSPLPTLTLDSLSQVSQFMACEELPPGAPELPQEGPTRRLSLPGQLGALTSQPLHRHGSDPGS
row,SMILES,"hERG current change (%, negative = inhibition) at 10uM"
1,CC(NC(=O)CS(=O)(=O)c1ccccc1)c1ccccc1 (stereo not shown),13.5%
2,CCOC(=O)c1c(C)c(C(=O)NCc2ccccn2)c(C)n1C,-4.67%
3,CSc1nc(-c2ccc(Cl)cc2)nn1C(=O)c1ccco1,-2.97%
4,C=CCNC(=O)CCNS(=O)(=O)c1ccc(Br)cc1,9.96%
5,Cc1cc2oc(C(=O)Nc3ccc(S(=O)(=O)Nc4onc(C)c4C)cc3)cc(=O)c2cc1Cl,24.6%
6,CCOC(=O)Cn1c(=O)oc2cc(S(=O)(=O)N3CCCC(C)C3)ccc21 (stereo not shown),19.1%
7,COc1ccc(-c2nnc(SCC(=O)N3CCCCC3)o2)cc1,5.27%
8,CC(C)CCN(Cc1ccco1)S(=O)(=O)c1csc(C(N)=O)c1,-14.9%
9,COCc1nnc(NS(=O)(=O)c2ccccc2)s1,5.23%
10,Cc1onc(-c2c(Cl)cccc2Cl)c1NC(=O)NNc1c(Cl)cncc1Cl,-2.17%
11,O=c1c(Cl)c(N2CCOCC2)cnn1-c1ncc(C(F)(F)F)cc1Cl,5.44%
12,COc1ccc(OC)c(NC(=O)CSc2ccc3ccccc3c2)c1,-7.3%
13,Cc1ccc(S(=O)(=O)Nc2cccnc2)c(C)c1C,25.1%
14,COc1ccc(NC(C)=O)cc1S(=O)(=O)N1CCn2cccc2C1C (stereo not shown),-2.68%
15,Cn1c(SCC(=O)NCc2cccs2)nnc1-c1ccco1,-11.3%
16,C/C(=N\NC(=O)C1COc2ccccc2O1)c1ccccn1 (stereo not shown),4.32%
17,COc1ccc(NC(=O)C2C3CC/C=C\CCC32)cc1 (stereo not shown),10.3%
18,O=C(N/N=C1\CCc2ccccc21)c1ccncc1,13.7%
19,CCn1c(SCC(=O)Nc2sc(C)c(C)c2C#N)nnc1C1CC1,-12%
20,CC1CCCN(c2nc3c(c(=O)n(C)c(=O)n3C)n2Cc2ccccc2)C1 (stereo not shown),-40.9%
21,FC(F)(F)c1ccc(NCCc2ccccc2)nc1,9.41%
22,COc1ccc(OC)c(NC(=O)CCOc2cccc(C)c2)c1,-12.9%
23,CCOc1ccc2[nH]c(=O)c(CN(CC3COCCO3)C(=O)C3CC3)cc2c1 (stereo not shown),11.3%

row,SMILES,"hERG current change (%, negative = inhibition) at 10uM"
1,CC(=O)Oc1cccc(NC(=O)c2cccc(C(=O)Nc3cccc(OC(C)=O)c3)c2)c1,12.6%
2,COc1ccc2[nH]c(C)c(CCNC(=S)Nc3cccc(C)c3)c2c1,-1.02%
3,CCCCCCn1c(CN2CCN(Cc3ccccc3)CC2)nc2c1c(=O)n(C)c(=O)n2C,-71.8%
4,COc1ccc(CN(C)C(=O)CNC(=O)c2cccs2)c(OC)c1,10.1%
5,CCOc1ccc(Oc2ccc(NC(=O)[C@@H](NC(N)=O)[C@@H](C)CC)cc2)cc1,8.6%
6,Cc1onc(NC(=O)c2ccc(Cl)cc2Cl)c1Br,2.61%
7,N#Cc1c(N)nc(-c2ccccc2)nc1-c1ccccc1,14.5%
8,Cc1ccc(S(=O)(=O)NCCCCCC(=O)Nc2nccs2)cc1,-8.3%
9,CC(Oc1ccc(-c2nccc(-c3ccccn3)n2)cc1)C(=O)NN (stereo not shown),0.813%
10,Cc1ccc(C(=O)NNC(=S)NC(=O)c2ccco2)cc1,18.4%
11,O=C(Nc1ncc2c(n1)CC(c1ccco1)CC2=O)c1ccco1 (stereo not shown),-13.9%
12,O=C(COC(=O)c1n[nH]c2ccccc12)c1cccc(Br)c1,16.1%
13,O=C(C1CC1)N1N=C(c2ccc(F)cc2)CC1(O)C(F)(F)F (stereo not shown),5.65%
14,COc1ccc(OCC(=O)OCC(=O)NC2CCCCC2C)cc1 (stereo not shown),2.29%
15,COc1ccc(C(=O)O)cc1S(=O)(=O)NCCCN1CCCC1=O,15.5%
16,NC(=O)CSCc1ccc(Br)cc1,-3.69%
17,COCCNc1cc(N)c([N+](=O)[O-])cc1[N+](=O)[O-],-31.7%
18,Cc1cc(C(F)(F)F)nn1C(=O)c1cccnc1Cl,-5.15%
19,C/C=C/c1ccc(OCC(=O)OCC)c(OC)c1,-26.9%
20,CCCCCC1CC(COc2ccccc2)OC1=O (stereo not shown),0.285%
21,Cc1cc2c(cc1S(=O)(=O)N1CCc3ccccc31)NC(=O)CO2,-4.79%
22,COc1ccc(CCNC(=O)CCN2C(=O)c3ccccc3C2=O)cc1OC,-4.04%
23,CN(C1CC(C)(C)NC(C)(C)C1)S(=O)(=O)CC12CCC(CC1=O)C2(C)C.Cl (stereo not shown),-7.38%

row,SMILES,"hERG current change (%, negative = inhibition) at 10uM"
1,CC1CC(C)CN(Cc2nc(N)nc(Nc3ccccc3)n2)C1 (stereo not shown),-64.8%
2,Cc1cc2cc(CN(Cc3ccc4c(c3)OCO4)C(=O)c3ccco3)c(=O)[nH]c2cc1C,-25%
3,CCOC(=O)/C(C#N)=C/C1=C(N2CCOCC2)CC(C)(C)OC1,-3.59%
4,Cc1ccc(C(=O)NCCc2c[nH]c3ccccc23)c(C)c1,-19.3%
5,O=[N+]([O-])c1ccc(NCCN2CCOCC2)c([N+](=O)[O-])c1,-44.6%
6,O=C(CN1CCCC1)Nc1ccc(NC(=O)Nc2ccccc2)cc1,6.42%
7,COc1ccc(CCN2C(=O)NC(NC(C)=O)(C(F)(F)F)C2=O)cc1OC (stereo not shown),7.51%
8,COc1cccc(OC)c1C(=O)Oc1ccc2c(c1)O/C(=C\c1ccncc1)C2=O,11%
9,COc1ccccc1C(=O)Nc1ccc2c(c1)nc(CCNC(=O)c1ccco1)n2C,6.59%
10,CC(C)c1ccc(/C=N/NC(=O)c2nnn(-c3nonc3N)c2CN2CCOCC2)cc1,-56.6%
11,CC1=C(C(=O)OCC2CCCO2)C(c2ccccc2)NC(=O)N1 (stereo not shown),6.66%
12,CCCC(=O)N1CCN(c2ccc(NC(=O)c3ccccc3)cc2)CC1,1.37%
13,COCCNC(=O)C(=O)NNC(=O)COc1ccc(OC)cc1,13.7%
14,CC1CCCN(C(=O)C2CCN(S(=O)(=O)c3ccc4c(c3)CC(C)N4C(=O)C3CC3)CC2)C1 (stereo not shown),-0.0258%
15,Cc1cccc(C)c1NC(=S)Nc1ccc(F)cc1,5.88%
16,Fc1cccc(F)c1CSc1nc2ccccc2[nH]1,-9.2%
17,Cc1cc(/C=C(\C#N)C(=O)O)c(C)n1C1CC1,-3.53%
18,CCOC(=O)c1c(NC(=O)C2CCCN(S(=O)(=O)c3ccc(C)cc3)C2)sc2c1CCCC2 (stereo not shown),17.9%
19,CC1(c2nnc(-c3cccc(Cl)c3)o2)CC(c2ccc(F)cc2)=NO1 (stereo not shown),-8.47%
20,O=S(=O)(c1ccc(Oc2ccc(Cl)cc2)c(S(=O)(=O)N2CCCCC2)c1)N1CCCCC1,-10.1%
21,Cc1cccc(-n2c(Cc3cc(=O)[nH]c(=O)[nH]3)nnc2SCC(=O)NCC2CCCO2)c1 (stereo not shown),16.1%
22,CN(CC(=O)Nc1c(F)cccc1F)Cc1cccs1,29.9%
23,COc1ccccc1OCC(=O)NNC(=O)c1c(-c2ccccc2Cl)noc1C,16.8%

row,SMILES,"hERG current change (%, negative = inhibition) at 10uM"
1,COc1ccc(-c2c(C#N)c(N)nc3c2CCC3)cc1,10.4%
2,Cc1ccc(/C=N/NC(=O)c2cc(C3CC3)nc3ccccc23)o1,6.16%
3,C[C@]12C=CC(=O)C=C1CCC1C3CC[C@](O)(C(=O)CO)[C@@]3(C)CC3OC312 (stereo partly shown),11.5%
4,Cc1cc(NC(=O)CSc2cc(Cl)ccc2Cl)n(-c2ccccc2)n1,-20.2%
5,COC(=O)c1ccc(C(=O)NCCCCO)cc1,20%
6,CCC(=N\NC(=O)COc1ccccc1OC)/C(CC)=N/NC(=O)COc1ccccc1OC,8.06%
7,O=C(NCc1ccco1)c1cc(C(=O)C2CCCCC2)c[nH]1,15.9%
8,CS(=O)(=O)c1cccc(C(=O)N(CCc2ccccc2)Cc2cccs2)c1,-48.6%
9,N#C/C(=C/C=C/c1ccccc1)C(=O)Nc1ccccc1,2.44%
10,Cc1ccsc1C(C(=O)NC1CCCCC1)N(C(=O)c1csnn1)C1CC1 (stereo not shown),-4.54%
11,Cc1ccc(O)c(-c2cc(C(F)(F)C(F)F)nc(-c3ccccc3)n2)c1,8.38%
12,CCCN(CCC)c1cc(Cl)nc(N)n1,7.49%
13,C[C@@H](NC(=O)OC(C)(C)C)C(=O)NCC1CCC(C(=O)N[C@@H](Cc2ccccc2)C(=O)O)CC1 (stereo partly shown),10.5%
14,Cc1ccc(C(=O)NCc2cccnc2)cc1S(=O)(=O)N1CCCCCC1,-65.7%
15,O=C1/C(=C/c2ccncc2)N=C2CCCCCN12,0.168%
16,Cc1ccc(C)c(SCC(=O)OCC(=O)c2ccco2)c1,8.67%
17,O=S(=O)(c1ccccc1)N1CCC2(CC1)CO2,-2.52%
18,Cc1cc(C)c(NC(=O)COC(=O)c2cccc3c2C(=O)c2ccccc2C3=O)c(C)c1,11.4%
19,CCCn1c(SC(C)C(=O)NCC2CCCO2)nc2sc(CC)cc2c1=O (stereo not shown),-34.1%
20,CC1CCCCC1NCC(=O)NCc1ccc(F)cc1.O=C(O)C(=O)O (stereo not shown),-8.33%
21,COc1ccc(C2=CC(c3ccc(Cl)cc3)n3cnnc3N2)cc1OC (stereo not shown),-52%
22,COc1ccc(/C=N/Nc2cc(C)nc3ccc(Br)cc23)cc1,-35.1%
